The text below walks through data of patent US20160031967A1 (Affibody, published 2016).

Test [1] has as its target T1, human FcRn: extracellular domain of human αFcRn in complex with human β2-microglobulin, soluble, produced in … (human, UniProt P55899 24-290; P16213 21-119).
T1 construct: Ig kappa leader cleaved upon secretion; Biotinylated for ELISA, amine coupled for Biacore; also called hFcRn; not shown: C-terminal GS-linker and FLAG tag; C-terminal GS-linker and His6 tag
Nature of the test: Biacore, human FcRn immobilized, pH 6.0, Langmuir 1:1. Here is the method:
(§1) One flow cell surface on the chip was activated and deactivated for use as blank during analyte injections.
Kinetic constants were calculated from the sensorgrams using the Langmuir 1:1 model of BiaEvaluation software 4.1 (GE Healthcare).
For orientation: In SPR one partner is held on a chip, and binding of the other changes the refractive index at the surface.

Test [2] has as its target T2, mouse FcRn, soluble, produced in mouse 3T3 cells (mouse, UniProt Q61559 22-290; P01887 21-119).
T2 construct: also called mFcRn; murine FcRn
T2 sequence: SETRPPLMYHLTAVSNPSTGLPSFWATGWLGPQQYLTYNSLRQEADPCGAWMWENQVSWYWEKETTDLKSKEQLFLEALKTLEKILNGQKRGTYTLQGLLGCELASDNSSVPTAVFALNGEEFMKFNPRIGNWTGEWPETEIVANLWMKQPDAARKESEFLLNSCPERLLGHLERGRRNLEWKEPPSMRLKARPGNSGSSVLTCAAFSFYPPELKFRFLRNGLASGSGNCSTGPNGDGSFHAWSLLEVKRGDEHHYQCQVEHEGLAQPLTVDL
T2 sequence (b2m): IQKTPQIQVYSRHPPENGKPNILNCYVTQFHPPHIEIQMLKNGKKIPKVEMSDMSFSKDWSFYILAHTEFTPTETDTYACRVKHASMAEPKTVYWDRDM
Nature of the test: Biacore 3000, mFcRn immobilized, one site saturation, pH 7.4. How it is done: (§2) In a separate experiment, the affinity of the interactions of Z variants to hFcRn (SEQ ID NO:1065) and mFcRn (SEQ ID NO:1070), respectively, was measured at both pH 6.0 and pH 7.4 on a Biacore 3000 instrument (GE Healthcare). hFcRn and mFcRn were produced essentially as described in Example 1 but using mouse 3T3 cells instead of human SKOV-3 cells for production of mFcRn, and immobilized on separate flow cells on a CM5 chip in acetate buffer at pH 4.65. The immobilization level was approximately 1000 RU for both receptors. A reference flow cell was created by activation and deactivation. 0.005% PCT pH 6.0 or 7.4 was used as running buffer and for dilution of the analytes. All analyses were performed at 25° C. […] The affinities were derived using GraphPad Prism 5 software, using a one site binding saturation model.

In test [3] the target is T2, mouse FcRn, soluble, produced in mouse …. Description: Biacore 3000, mFcRn immobilized, one site saturation, pH 6.0. How it is done:
as §2

The target of test [4] is T3, human FcRn (Biorbyt, cat. no. orb84388) (human, UniProt P55899 24-297; P61769 21-119, limits assumed).
T3 construct: Bought protein; Biotinylated in AlphaLISA and ELISA; also called biotinylated human FcRn
Nature of the test: AlphaLISA blocking of IgG (Roactemra) binding to biotinylated human FcRn, pH 6.0. Here is the method:
Stepwise serial dilutions 1:3 of His-tagged Z variants to final concentrations of 250 nM to 38 pM were made in a 384-well plate (Perkin Elmer, cat. no. G6005350) and incubated for 45 min with 10 nM biotinylated human FcRn (Biorbyt, cat. no. orb84388; biotinylated essentially as described in Example 2) in AlphaLISA buffer (Perkin Elmer, cat. no. AL000F) adjusted to pH 6.0 using HCl. IgG-coated Acceptor beads were added to a final concentration of 10 μM and incubated for 45 min. Finally, streptavidin coated Donor beads (Perkin Elmer, cat. no. 6772002) were added to a final concentration of 40 μg/ml and incubated for 30 min. All incubations were performed at RT in the dark. The plate was analyzed in the EnSpire instrument and the IC50 values were calculated using GraphPad Prism 5.
(In general: Alpha assays give light when donor and acceptor beads are brought close together.)

For test [5], the target named is T4, mouse FcRn-eGFP on transduced HeLa cells (with mB2M) (mouse, UniProt Q61559 22-365; P01887 21-119).
T4 construct: Amino acids 1-369 of mFcRn with the original signal peptide; cells fixed and permeabilised with saponin; also called mFcRn-eGFP; mFcRn; not shown: eGFP fused at the cytoplasmic tail
T4 sequence: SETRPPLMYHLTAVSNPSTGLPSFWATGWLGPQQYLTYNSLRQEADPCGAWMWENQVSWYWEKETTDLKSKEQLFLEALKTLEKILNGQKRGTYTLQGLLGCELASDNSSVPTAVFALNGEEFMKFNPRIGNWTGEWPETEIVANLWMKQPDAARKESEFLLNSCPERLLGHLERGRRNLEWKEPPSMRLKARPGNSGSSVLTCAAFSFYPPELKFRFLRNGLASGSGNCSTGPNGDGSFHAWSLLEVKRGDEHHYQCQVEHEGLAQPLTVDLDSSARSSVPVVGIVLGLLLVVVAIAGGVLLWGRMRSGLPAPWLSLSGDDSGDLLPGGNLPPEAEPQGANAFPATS
T4 sequence (b2m): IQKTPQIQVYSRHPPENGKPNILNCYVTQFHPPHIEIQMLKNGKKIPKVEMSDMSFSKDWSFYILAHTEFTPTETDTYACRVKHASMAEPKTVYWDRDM
Nature of the test: flow cytometry, Alexa647 labeled Z variant, mFcRn-eGFP HeLa cells, pH 6.0. On the technique in general: A flow cytometer gives signals particle by particle.

Test [6] deals with T1, human FcRn: extracellular domain of …. Nature of the test: Biacore, human FcRn immobilized, 250 nM, pH 6.0.
Source text: as §1

The target of test [7] is T3, human FcRn (Biorbyt, cat. no. orb84388). Nature of the test: Biacore, human FcRn (Biorbyt) immobilized, pH 6.0.
Source text: as §1

Test [8] addresses T5, human PSMA (in house produced) (human, UniProt Q04609 44-750, limits assumed).
T5 construct: Biotinylated
Description: ELISA, pH 6.0 and pH 7.4.

The target of test [9] is T1, human FcRn: extracellular domain of …. Description: ELISA, Z-ABD captured on anti-ABD, biotinylated human FcRn titrated, pH 7.4. Here is the method:
(§3) After washing as described above, 50 μl ImmunoPure TMB substrate (Thermo Scientific, cat. no. 34021) was added to the wells and the plates were treated according to the manufacturer's recommendations.

Test [10] has the same target. Nature of the test: ELISA, Z-ABD captured on anti-ABD, biotinylated human FcRn titrated, pH 6.0. Here is the method:
as §3

For test [11] the target is unchanged. Nature of the test: Biacore, human FcRn immobilized, pH 6.0.

T3 sequence (P55899 24-297 limits assumed, chain 1 of 2): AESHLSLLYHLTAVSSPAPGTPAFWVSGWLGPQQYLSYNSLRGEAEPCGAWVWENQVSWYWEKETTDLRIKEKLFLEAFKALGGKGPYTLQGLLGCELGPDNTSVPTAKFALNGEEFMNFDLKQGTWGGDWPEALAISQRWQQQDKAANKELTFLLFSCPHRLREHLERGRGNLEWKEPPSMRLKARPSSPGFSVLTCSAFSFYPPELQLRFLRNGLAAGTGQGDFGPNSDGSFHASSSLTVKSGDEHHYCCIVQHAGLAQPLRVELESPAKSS
T3 sequence (P61769 21-119 limits assumed, chain 2 of 2, further chain): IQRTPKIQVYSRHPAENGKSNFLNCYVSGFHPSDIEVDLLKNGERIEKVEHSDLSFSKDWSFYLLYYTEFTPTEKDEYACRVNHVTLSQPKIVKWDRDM
T5 sequence (Q04609 44-750 limits assumed): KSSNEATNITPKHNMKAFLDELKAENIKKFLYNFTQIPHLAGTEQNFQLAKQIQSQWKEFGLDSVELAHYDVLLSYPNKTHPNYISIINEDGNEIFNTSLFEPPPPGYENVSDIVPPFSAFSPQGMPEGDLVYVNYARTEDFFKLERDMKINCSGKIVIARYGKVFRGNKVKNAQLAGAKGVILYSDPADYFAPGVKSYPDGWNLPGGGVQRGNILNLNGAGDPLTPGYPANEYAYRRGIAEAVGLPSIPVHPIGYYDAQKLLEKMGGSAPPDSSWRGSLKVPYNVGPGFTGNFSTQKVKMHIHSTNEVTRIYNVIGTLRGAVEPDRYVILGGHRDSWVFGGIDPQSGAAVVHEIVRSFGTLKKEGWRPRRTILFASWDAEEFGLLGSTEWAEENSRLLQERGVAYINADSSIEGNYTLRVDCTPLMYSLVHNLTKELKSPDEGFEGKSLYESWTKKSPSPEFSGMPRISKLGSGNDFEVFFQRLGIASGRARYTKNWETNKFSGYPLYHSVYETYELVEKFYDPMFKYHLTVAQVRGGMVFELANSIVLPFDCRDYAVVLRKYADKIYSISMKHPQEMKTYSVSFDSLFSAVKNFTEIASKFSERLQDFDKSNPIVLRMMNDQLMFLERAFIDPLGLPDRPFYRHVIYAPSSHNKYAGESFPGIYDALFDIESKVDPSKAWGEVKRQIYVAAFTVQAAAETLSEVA

B1: His6-tagged Z07918 (designed binder)
chain: MGSSHHHHHHLQVDAKYAKEQDAAAHEIRWLPNLTFDQRVAFIHKLADDPSQSSELLSEAKKLNDSQAPKVD
notes: also called His6-Z07918
Consider B1, for which the Kd – broadly, the concentration at which binding is half-saturated – in [1] is 0.016 µM; in [2] it was greater than 0.5 µM; in test [3], 0.09 µM.

B2: His6-tagged Z07930 (designed binder)
chain: MGSSHHHHHHLQVDAKYAKESDSAVHEIRWLPNLTFDQRVAFIHKLLDDPSQSSELLSEAKKLNDSQAPKVD
In the case of B2, the IC50 (commonly the point on the concentration scale where inhibition reaches its midpoint) in [4] is 0.042 µM. The binding result in [5] is “binds”.

B3: His6-tagged Z10152 (designed binder)
chain: MGSSHHHHHHLQVDAKYAKEEDVAAHEIRWLPNLTFNQRAAFIDKLLDDPSQSSELLSEAKKLNDSQAPKVD
Consider B3, for which, in [6], the binding result is reported as “binds”.

B4: His6-tagged Z13621 (designed binder)
chain: MGSSHHHHHHLQVDAKYAKEADAAGHEIRWLPNLTFDQRVAFIHKLRDDPSQSSELLSEAKKLNDSQAPKVD
As to B4, in test [7], binding was put at a Kd of 0.006 µM; the koff – broadly, the first-order rate constant of dissociation – came to 0.0037 s⁻¹; the kon (usually the rate constant with which the complex forms) was 640000 M⁻¹ s⁻¹. Besides, the IC50 in test [4] is 0.0032 µM.

B5: His6-tagged Z10145 (designed binder)
chain: MGSSHHHHHHLQVDAKYAKENQDAAHEIRWLPNLTYDQRVAFIGKLNDDPSQSSELLSEAKKLNDSQAPKVD
B5: in test [6], the binding result was “binds”.

B6: His6-tagged Z13577 (designed binder)
chain: MGSSHHHHHHLQVDAKYAKEWHQAAHEIRWLPNLTFDQRVAFIHKLRDDPSQSSELLSEAKKLNDSQAPKVD
With B6, in test [7], binding was put at a Kd of 0.013 µM, the koff was found to be 0.004 s⁻¹ and the kon amounted to 300000 M⁻¹ s⁻¹. The IC50 in test [4] worked out at 0.012 µM.

B7: His6-tagged Z07960 (designed binder)
chain: MGSSHHHHHHLQVDAKYAKEFESAAHEIRWLPNLTYDQRVAFIHKLSDDPSQSSELLSEAKKLNDSQAPKVD
As to B7, in test [4], the 50% inhibitory concentration (IC50) stood at 0.042 µM. Moreover, the Kd was greater than 5 µM in [2] and 0.35 µM in test [3].

B8: His6-tagged Z10193 (designed binder)
chain: MGSSHHHHHHLQVDAKYAKEWMRAAHEIRWLPNLTFDQRVAFIHKLEDDPSQSSELLSEAKKLNDSQAPKVD
On to B8, for which the Kd in test [1] was 0.022 µM; in test [2], greater than 0.5 µM; in [3] it was 0.095 µM. This molecule also gave an IC50 in test [4] of 0.012 µM.

B9: His6-tagged Z10161 (designed binder)
chain: MGSSHHHHHHLQVDAKYAKESGYAVHEIRWLPNLTFDQRVAFINKLQDDPSQSSELLSEAKKLNDSQAPKVD
Take B9: the binding result in test [6] is “binds”.

B10: Z10109-ABD fusion (designed binder)
chain: AQHDEALEVDAKYAKEANTAAHEIRWLPNLTFDQRVAFIRKLWDDPSQSSELLSEAKKLNDSQAPKVDYVLAEAKVLANRELDKYGVSDYYKNLINNAKTVEGVKALIDEILAALPYVPG
notes: domain: GA3; periplasmic Z-ABD fusion
Turning to B10, in test [8], the binding result is “no binding (tested: 2 µg/ml)”. Moreover, the dissociation constant (Kd) in test [9] worked out at 0.0239 µM.

B11: Z10193-ABD fusion (designed binder)
chain: AQHDEALEVDAKYAKEWMRAAHEIRWLPNLTFDQRVAFIHKLEDDPSQSSELLSEAKKLNDSQAPKVDYVLAEAKVLANRELDKYGVSDYYKNLINNAKTVEGVKALIDEILAALPYVPG
notes: as for B10
On to B11, for which the binding result in [8] is given as “no binding (tested: 2 µg/ml)”. Further, the values for the Kd in [9] and in test [10] were 0.0259 µM and 0.0023 µM, respectively.

B12: Z03638-PP013 (negative control) (designed binder)
chain: AEAKYAKELGWATWEIFNLPNLTGVQVKAFIDKLRDDPSQSSELLSEAKKLNDSQAPKGAPGGGGSGGGGSGGGGSGGGGSTSLAEAKEAANAELDSYGVSDFYKRLIDKAKTVEGVEALKDAILAALP
notes: also called [Z03638]-GAP(G4S)4TS-[PP013]; PP013-Z03638 negative control
Take B12: in test [11], the binding result is “no binding (tested: 40 nM, 160 nM and 640 nM)”.
